Data as given in the supplement of paper PMC12217912.
Some of the results follow. The full chains were built here from the parent and the listed change. Inactive controls read about 0.05.

B1: TEV protease; numbered along this chain (parent)
chain: MGESLFKGPRDYNPISSSICHLTNESDGHTTSLYGIGFGPFIITNKHLFRRNNGTLVVQSLHGVFKVKDTTTLQQHLVDGRDMIIIRMPKDFPPFPQKLKFREPQREERICLVTTNFQTKSMSSMVSDTSCTFPSGDGIFWKHWIQTKDGQCGSPLVSTRDGFIVGIHSASNFTNTNNYFTSVPKNFMELLTNQEAQQWVSGWRLNADSVLWGGHKVFMVKPEEPFQPVKEATQL

Variants of: B1
Assay: raw area under fraction-flipped curve 0-4 h after induction (AUC4h, not background-subtracted), DNA-recorder readout of cleavage of the substrate (dimensionless); higher = more cleavage of the substrate by the protease variant
Conditions: temperature: 34 °C; time window: 0-4 h after rhamnose induction
Method: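 In vivo DNA recorder in E. coli TOP10(DE3) ΔrhaA at 34 °C. Each TEVp single-site mutant (parent TEVp 0) is paired with a single-site variant of the 7-mer TEVs (canonical ENLYFQ|S). The substrate sits between flexible linkers in a Bxb1-sfGFP-TEVs-SsrA fusion, so cleavage stabilises Bxb1 and speeds flipping of a recombination array, read by NGS. The value is the raw area under the fraction-flipped curve over 0-4 h after rhamnose induction (AUC4h), with ≥20 reads per time point. It is not background-subtracted; inactive controls average about 0.047.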
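Note: Bxb1 expression induced with 0.2% (w/v) L-rhamnose at OD600 near 0.5, cultures sampled hourly, flipped fraction per protease–substrate barcode pair counted by paired-end Illumina sequencing.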

| Variant | area with substrate ENAYFQS | area with substrate ENDYFQS | area with substrate ENEYFQS | area with substrate ENFYFQS | area with substrate ENHYFQS | area with substrate ENIYFQS | area with substrate ENQYFQS | area with substrate ENRYFQS | area with substrate ENVYFQS | area with substrate ENCYFQS | area with substrate ENKYFQS | area with substrate ENMYFQS | area with substrate ENSYFQS | area with substrate ENTYFQS | area with substrate ENYYFQS | area with substrate ENNYFQS | area with substrate ENGYFQS | area with substrate ENPYFQS | area with substrate ENWYFQS |
| --- | --- | --- | --- | --- | --- | --- | --- | --- | --- | --- | --- | --- | --- | --- | --- | --- | --- | --- | --- |
| MGESLFKGPRDYNPISSSICHLTNESDGHTTSLYGIGFGPFIITNKHLFRRNNGTLVVQSLHGVFKVKDTTTLQQHLTDGRDMIIIRMPKDFPPFPQKLKFREPQREERICLVTTNFQTKSMSSMVSDTSCTFPSGDGIFWKHWIQTKDGQCGSPLVSTRDGFIVGIHSASNFTNTNNYFTSVPKNFMELLTNQEAQQWVSGWRLNADSVLWGGHKVFMVKPEEPFQPVKEATQL [V78T] | 0.0448 | 0.044 | 0.0464 | 0.0622 | 0.0582 | 0.105 | 0.0497 | 0.0423 | 0.0875 | – | – | – | – | – | – | – | – | – | – |
| MGESLFKGPRDYNPISSSICHLTNESDGHTTSLYGIGFGPFIITNKHLFRRNNGTLVVQSLHGVFTVKDTTTLQQHLVDGRDMIIIRMPKDFPPFPQKLKFREPQREERICLVTTNFQTKSMSSMVSDTSCTFPSGDGIFWKHWIQTKDGQCGSPLVSTRDGFIVGIHSASNFTNTNNYFTSVPKNFMELLTNQEAQQWVSGWRLNADSVLWGGHKVFMVKPEEPFQPVKEATQL [K66T] | 0.0665 | 0.0666 | 0.0589 | – | – | 0.0575 | 0.0559 | 0.0529 | 0.064 | 0.0713 | 0.0646 | 0.113 | 0.0861 | 0.069 | 0.0479 | – | – | – | – |
| MGESLFKGPRDYNPISSSICHLTNESDGHTTSLYGIGFGPFIITNKHLFRRNNGTLVVQSLHGVFKVKDTTTLQTHLVDGRDMIIIRMPKDFPPFPQKLKFREPQREERICLVTTNFQTKSMSSMVSDTSCTFPSGDGIFWKHWIQTKDGQCGSPLVSTRDGFIVGIHSASNFTNTNNYFTSVPKNFMELLTNQEAQQWVSGWRLNADSVLWGGHKVFMVKPEEPFQPVKEATQL [Q75T] | 0.0813 | 0.0783 | 0.0325 | 0.0703 | 0.0577 | – | 0.0495 | 0.0701 | 0.0846 | 0.0646 | 0.0726 | – | 0.116 | 0.0692 | – | 0.036 | – | – | – |
| MGESLFKGPRDYNPISSSICHLTNESDGHTTSLYGIGFGPFIITNKHLFRRNNGTLVVQSLHGVFKVKDTTTLQHHLVDGRDMIIIRMPKDFPPFPQKLKFREPQREERICLVTTNFQTKSMSSMVSDTSCTFPSGDGIFWKHWIQTKDGQCGSPLVSTRDGFIVGIHSASNFTNTNNYFTSVPKNFMELLTNQEAQQWVSGWRLNADSVLWGGHKVFMVKPEEPFQPVKEATQL [Q75H] | 0.048 | 0.0558 | 0.0587 | 0.0613 | 0.0618 | – | 0.0798 | 0.0587 | 0.0582 | 0.0594 | 0.0599 | 0.0521 | 0.0685 | 0.0559 | 0.0579 | 0.0615 | 0.0701 | 0.0771 | 0.0529 |
| MGESLFKGPRDYNPISSSICHLTNESDGHTTSLYGIGFGPFIITNKHLFRRNNGTLVVQSLHGVFKVKDTITLQQHLVDGRDMIIIRMPKDFPPFPQKLKFREPQREERICLVTTNFQTKSMSSMVSDTSCTFPSGDGIFWKHWIQTKDGQCGSPLVSTRDGFIVGIHSASNFTNTNNYFTSVPKNFMELLTNQEAQQWVSGWRLNADSVLWGGHKVFMVKPEEPFQPVKEATQL [T71I] | 0.064 | 0.0633 | 0.065 | 0.0423 | 0.062 | 0.114 | – | – | – | 0.0855 | 0.0654 | 0.0421 | 0.0661 | 0.0584 | – | – | – | – | – |
| MGESLFKGPRDYNPISSSICHLTNESDGHTTSLYGIGFGPFIITNKHLFRRNNGTLVVQSLHGVFKVKDTHTLQQHLVDGRDMIIIRMPKDFPPFPQKLKFREPQREERICLVTTNFQTKSMSSMVSDTSCTFPSGDGIFWKHWIQTKDGQCGSPLVSTRDGFIVGIHSASNFTNTNNYFTSVPKNFMELLTNQEAQQWVSGWRLNADSVLWGGHKVFMVKPEEPFQPVKEATQL [T71H] | 0.0665 | 0.0585 | – | 0.0528 | – | 0.0879 | 0.0522 | – | – | – | – | – | – | 0.0523 | – | 0.0611 | – | 0.0444 | – |
| MGESLFKGPRDYNPISSSICHLTNESDGHTTSLYGIGFGPFIITNKHLFRRNNGTLVVQSLHGVFKVKDTDTLQQHLVDGRDMIIIRMPKDFPPFPQKLKFREPQREERICLVTTNFQTKSMSSMVSDTSCTFPSGDGIFWKHWIQTKDGQCGSPLVSTRDGFIVGIHSASNFTNTNNYFTSVPKNFMELLTNQEAQQWVSGWRLNADSVLWGGHKVFMVKPEEPFQPVKEATQL [T71D] | 0.0511 | 0.0628 | 0.0603 | 0.0614 | – | – | – | – | – | – | 0.0447 | 0.0551 | 0.0644 | 0.0569 | – | 0.0825 | 0.0649 | – | – |
| MGESLFKGPRDYNPISSSICHLTNESDGHTTSLYGIGFGPFIITNKHLFRRNNGTLVVQSLHGVYKVKDTTTLQQHLVDGRDMIIIRMPKDFPPFPQKLKFREPQREERICLVTTNFQTKSMSSMVSDTSCTFPSGDGIFWKHWIQTKDGQCGSPLVSTRDGFIVGIHSASNFTNTNNYFTSVPKNFMELLTNQEAQQWVSGWRLNADSVLWGGHKVFMVKPEEPFQPVKEATQL [F65Y] | 0.0778 | – | – | 0.059 | 0.103 | – | 0.0626 | 0.0638 | 0.0879 | – | – | 0.0741 | 0.0615 | – | 0.0613 | – | 0.0543 | – | – |
| MGESLFKGPRDYNPISSSICHLTNESDGHTTSLYGIGFGPFIITNKHLFRRNNGTLVVQSLHGVSKVKDTTTLQQHLVDGRDMIIIRMPKDFPPFPQKLKFREPQREERICLVTTNFQTKSMSSMVSDTSCTFPSGDGIFWKHWIQTKDGQCGSPLVSTRDGFIVGIHSASNFTNTNNYFTSVPKNFMELLTNQEAQQWVSGWRLNADSVLWGGHKVFMVKPEEPFQPVKEATQL [F65S] | 0.0593 | 0.0665 | 0.059 | 0.0636 | – | – | 0.039 | 0.0761 | – | 0.0603 | 0.064 | – | 0.0667 | – | – | 0.0599 | 0.0597 | 0.0602 | 0.0643 |
| MGESLFKGPRDYNPISSSICHLTNESDGHTTSLYGIGFGPFIITNKHLFRRNNGTLVVQSLHGVFKHKDTTTLQQHLVDGRDMIIIRMPKDFPPFPQKLKFREPQREERICLVTTNFQTKSMSSMVSDTSCTFPSGDGIFWKHWIQTKDGQCGSPLVSTRDGFIVGIHSASNFTNTNNYFTSVPKNFMELLTNQEAQQWVSGWRLNADSVLWGGHKVFMVKPEEPFQPVKEATQL [V67H] | 0.06 | 0.0663 | 0.0711 | 0.0333 | 0.0486 | – | 0.0656 | 0.0629 | 0.0856 | 0.0716 | 0.072 | – | 0.0553 | – | – | 0.0622 | 0.0639 | – | 0.0578 |
